# In PubChem BioAssay AID686979 (National Center for Advancing Translational Sciences (NCATS), 2013):
# In all, about 420,000 compounds went through this assay and about 50,000 (12%) were called active. The shares of active, inactive and inconclusive entries below differ from those in the screen. Calls come from the whole dose curve; as a rule, active = well fitted inhibition curve with a large enough effect; inconclusive = small, poorly fitted or top-dose-only effect; inactive = flat fitted curve, though single readings scatter. Potencies of inconclusive entries are left out as doubtful fits.
# Assay: qHTS for Inhibitors of human tyrosyl-DNA phosphodiesterase 1 (TDP1): qHTS in cells in presence of CPT; note: nearly all actives have a fitted effect of over 55% in size
# Conditions: chicken DT40 Tdp1-/-;hTDP1 cells + 20 nM CPT, ATP luminescence, 48 h; activity change, negative = growth inhibition: at 46.2 µM (top of the series) unless noted
# Method in brief: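 Chicken DT40 Tdp1-/- cells complemented with human TDP1, 400 cells/well, exposed to compounds plus 20 nM camptothecin for at least 48 h at 37 C; viability read as ATP content by CellTiter-Glo luminescence.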
# % is set by controls: 0 for no effect and ±100 for the full control effect; potency is the fitted concentration of half-maximal effect; tags give direction and shape of the fitted curve.
Structure (SMILES),Potency,"activity change, negative = growth inhibition"
Cc1c(C)c(C)c(/C=C/c2ccnc3ccccc23)c(C)c1C,active: 11.2 µM,
CC(=O)c1ccc(-n2c(SCC(=O)c3c[nH]c4ccccc34)nc3ccccc3c2=O)cc1,active: 20.6 µM,
CCCCCC(=O)Cc1cc(O)cc2c1C(=O)Oc1cc(O)c(C(=O)O)c(CCCCC)c1O2,"inconclusive [inhibitor, single point]",
O=[N+]([O-])c1nn(-c2ccc3c(c2)OCCO3)n(O)c1=NCCCO,active: 14.6 µM,
Cc1ccc(C(C)NC(=S)NCc2ccc(F)cc2)c(C)c1 (centres undefined),active: 20.6 µM,
O=c1c(-c2ccccc2)nc2cnc(N3CCNCC3)nc2n1Cc1ccc(F)cc1,"inconclusive [inhibitor, single point]",
COc1ccc(NC(=O)c2cc(-c3cc(F)ccc3OC(C)C)n[nH]2)cc1OC,"inconclusive [inhibitor, single point]",
Cc1ccc(-c2nc3cnccn3c2Nc2ccc(C(C)C)cc2)o1,"inconclusive [inhibitor, single point]",
CC1CN(c2ccnc3cc(Cl)ccc23)CC(C)O1 (centres undefined),"inconclusive [inhibitor, single point]",
C=CCOc1ccc(C2C(C(=O)c3ccco3)=C(O)C(=O)N2CCCN(CC)CC)cc1 (centres undefined),,inconclusive: -31.2% [inhibitor]
CNc1c([N+](=O)[O-])cnn1-c1ccccn1,,inactive: 15.5%
CCOc1ccc(CN2CCN(S(=O)(=O)c3ccc(NC(C)=O)cc3)CC2)cc1OC,"inconclusive [inhibitor, single point]",
CCOc1ccc(N2C(=O)CC(N3CCN(c4ccc(Cl)cc4)CC3)C2=O)cc1 (centres undefined),"inconclusive [inhibitor, single point]",
O=C(CCN1C(=O)/C(=C\c2ccccc2F)SC1=S)N1CCOCC1,"inconclusive [inhibitor, partial curve, poor fit]",
Cn1c(C2CCCCC2)nc2ccccc21,,inactive: -4.34%
CCCn1c(SCC(=O)Nc2ccc(S(=O)(=O)N3CCOCC3)cc2)n[nH]c1=O,,inactive: -7.68%
COc1ccc(OC)c(N/C(=N/c2nc(C)cc(C)n2)NC(C)=O)c1,"inconclusive [inhibitor, single point]",
Cn1c(=O)oc2cc(S(=O)(=O)N3CCCC(C(=O)Nc4nccs4)C3)ccc21 (centres undefined),"inconclusive [inhibitor, partial curve]",
Cc1ccc(CN(C(=O)c2ccc([N+](=O)[O-])cc2)c2ccccn2)cc1,"inconclusive [inhibitor, single point]",
